No constants are given. Whether binding was seen depends on the method and setting. For some of these results: In cells and extracts the contact can be indirect. Some results given as binding are weak or reduced against the parent protein; the word gives no strength. For some of these results: Sequences can lack the tags named with a protein. One block for each binder: values may come before it.
Experiments:
T7-DHX34 (wild-type) [1] = biological target: T1, T7-DHX34 (wild-type) (human, UniProt Q14147 1-1143); assay: pull-down; purified T7-DHX34 (wild-type or deletion constructs) on T7 agarose beads incubated with recombinant UPF1, UPF2, UPF3b or purified full-length FLAG-UPF1 in buffer D for 2 hr at 4°C; both purified
T1 construct: Human DHX34, wild type; also called T7-tagged DHX34; shRNA-resistant (R) wild-type T7-DHX34; source: HEK293T, transiently transfected, in lysate; also purified on T7 agarose beads
T1 sequence (looked up): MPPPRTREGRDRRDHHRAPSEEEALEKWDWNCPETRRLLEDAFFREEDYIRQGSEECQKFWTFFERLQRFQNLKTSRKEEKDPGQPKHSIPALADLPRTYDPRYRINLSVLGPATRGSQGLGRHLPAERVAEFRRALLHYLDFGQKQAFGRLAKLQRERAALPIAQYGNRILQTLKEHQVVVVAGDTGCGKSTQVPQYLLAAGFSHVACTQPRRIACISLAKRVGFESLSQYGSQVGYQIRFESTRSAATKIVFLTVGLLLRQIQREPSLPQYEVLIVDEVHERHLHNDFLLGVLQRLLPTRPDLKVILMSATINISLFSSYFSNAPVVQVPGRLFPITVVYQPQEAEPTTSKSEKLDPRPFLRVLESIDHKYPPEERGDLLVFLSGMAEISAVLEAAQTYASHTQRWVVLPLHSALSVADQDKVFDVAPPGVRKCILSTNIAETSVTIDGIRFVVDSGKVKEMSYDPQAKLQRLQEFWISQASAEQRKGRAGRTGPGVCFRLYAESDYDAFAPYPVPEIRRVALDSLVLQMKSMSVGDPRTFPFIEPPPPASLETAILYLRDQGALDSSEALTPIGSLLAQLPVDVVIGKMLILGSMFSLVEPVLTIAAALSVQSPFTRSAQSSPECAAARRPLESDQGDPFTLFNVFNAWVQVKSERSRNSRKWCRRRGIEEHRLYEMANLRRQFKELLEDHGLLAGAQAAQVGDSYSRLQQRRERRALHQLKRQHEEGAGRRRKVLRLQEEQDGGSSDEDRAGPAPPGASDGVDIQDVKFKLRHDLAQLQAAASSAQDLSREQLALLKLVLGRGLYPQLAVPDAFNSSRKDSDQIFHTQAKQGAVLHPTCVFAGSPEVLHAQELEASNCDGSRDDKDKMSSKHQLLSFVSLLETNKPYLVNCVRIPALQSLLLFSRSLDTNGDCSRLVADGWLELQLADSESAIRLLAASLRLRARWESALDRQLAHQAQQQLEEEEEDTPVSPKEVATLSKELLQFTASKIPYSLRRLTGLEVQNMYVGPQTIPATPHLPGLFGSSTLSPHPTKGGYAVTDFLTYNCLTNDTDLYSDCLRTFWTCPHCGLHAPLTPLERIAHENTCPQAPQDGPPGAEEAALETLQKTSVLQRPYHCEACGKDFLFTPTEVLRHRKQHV

T7-DHX34 (wild-type) [2] = biological target: T1, T7-DHX34 (wild-type); assay: co-IP; IP of transiently transfected T7-DHX34 (wild-type or mutants) from HEK293T lysate, in the presence of RNase A (Figure 3B); endogenous partners by western blot
[3] = biological target: T2, endogenous DHX34 (human (endogenous in HEK293T)) (UniProt Q14147); assay: co-IP; endogenous proteins immunoprecipitated from HEK293T cells (Figure S2C; endogenous UPF1 complexes from cells depleted of DHX34 or control, Figure 5D)
T2 sequence: T1 sequence (looked up)

FLAG-DHX34 (human) = biological target: T3, FLAG-DHX34 (human) (UniProt Q14147); assay: co-IP; anti-FLAG IP of transiently transfected FLAG-DHX34 from HEK293T lysate, in the absence or presence of RNase A; endogenous partners by western blot
T3 sequence: T1 sequence (looked up)

- binding (T7-DHX34 (wild-type) [1]): binds weakly
B1: recombinant UPF3b (protein, UniProt Q9BZI7 1-483)
chain: MKEEKEHRPKEKRVTLLTPAGATGSGGGTSGDSSKGEDKQDRNKEKKEALSKVVIRRLPPTLTKEQLQEHLQPMPEHDYFEFFSNDTSLYPHMYARAYINFKNQEDIILFRDRFDGYVFLDNKGQEYPAIVEFAPFQKAAKKKTKKRDTKVGTIDDDPEYRKFLESYATDNEKMTSTPETLLEEIEAKNRELIAKKTTPLLSFLKNKQRMREEKREERRRREIERKRQREEERRKWKEEEKRKRKDIEKLKKIDRIPERDKLKDEPKIKVHRFLLQAVNQKNLLKKPEKGDEKELDKREKAKKLDKENLSDERASGQSCTLPKRSDSELKDEKPKRPEDESGRDYREREREYERDQERILRERERLKRQEEERRRQKERYEKEKTFKRKEEEMKKEKDTLRDKGKKAESTESIGSSEKTEKKEEVVKRDRIRNKDRPAMQLYQPGARSRNRLCPPDDSTKSGDSAAERKQESGISHRKEGGEE

- binding (T7-DHX34 (wild-type) [2]): binds
- binding [3]: binds
- binding (FLAG-DHX34 (human)): binds
B2: endogenous UPF1 (protein, UniProt Q92900 1-1129)
chain: MSVEAYGPSSQTLTFLDTEEAELLGADTQGSEFEFTDFTLPSQTQTPPGGPGGPGGGGAGGPGGAGAGAAAGQLDAQVGPEGILQNGAVDDSVAKTSQLLAELNFEEDEEDTYYTKDLPIHACSYCGIHDPACVVYCNTSKKWFCNGRGNTSGSHIVNHLVRAKCKEVTLHKDGPLGETVLECYNCGCRNVFLLGFIPAKADSVVVLLCRQPCASQSSLKDINWDSSQWQPLIQDRCFLSWLVKIPSEQEQLRARQITAQQINKLEELWKENPSATLEDLEKPGVDEEPQHVLLRYEDAYQYQNIFGPLVKLEADYDKKLKESQTQDNITVRWDLGLNKKRIAYFTLPKTDSGNEDLVIIWLRDMRLMQGDEICLRYKGDLAPLWKGIGHVIKVPDNYGDEIAIELRSSVGAPVEVTHNFQVDFVWKSTSFDRMQSALKTFAVDETSVSGYIYHKLLGHEVEDVIIKCQLPKRFTAQGLPDLNHSQVYAVKTVLQRPLSLIQGPPGTGKTVTSATIVYHLARQGNGPVLVCAPSNIAVDQLTEKIHQTGLKVVRLCAKSREAIDSPVSFLALHNQIRNMDSMPELQKLQQLKDETGELSSADEKRYRALKRTAERELLMNADVICCTCVGAGDPRLAKMQFRSILIDESTQATEPECMVPVVLGAKQLILVGDHCQLGPVVMCKKAAKAGLSQSLFERLVVLGIRPIRLQVQYRMHPALSAFPSNIFYEGSLQNGVTAADRVKKGFDFQWPQPDKPMFFYVTQGQEEIASSGTSYLNRTEAANVEKITTKLLKAGAKPDQIGIITPYEGQRSYLVQYMQFSGSLHTKLYQEVEIASVDAFQGREKDFIILSCVRANEHQGIGFLNDPRRLNVALTRARYGVIIVGNPKALSKQPLWNHLLNYYKEQKVLVEGPLNNLRESLMQFSKPRKLVNTINPGARFMTTAMYDAREAIIPGSVYDRSSQGRPSSMYFQTHDQIGMISAGPSHVAAMNIPIPFNLVMPPMPPPGYFGQANGPAAGRGTPKGKTGRGGRQKNRFGLPGPSQTNLPNSQASQDVASQPFSQGALTQGYISMSQPSQMSQPGLSQPELSQDSYLGDEFKSQIDVALSQDSTYQGERAYQHGGVTGLSQY

— article PMC4534575, “The RNA Helicase DHX34 Activates NMD by Promoting a Transition from the Surveillance to the Decay-Inducing Complex” (Cell Reports, 2014)
